Laboratory results as given in the antibiotic and cytotoxicity screens of Wong et al. (2023).
Some of the results follow.

tested on: HSkMC (human skeletal muscle cells); test: cytotoxicity call (relative viability < 0.9); details: 10 µM

SMILES | cytotoxicity call
Cc1noc(C)c1S(=O)(=O)Nc1ccc2c(c1)C(=O)N([C@H](C)CO)C[C@@H](C)[C@@H](CN(C)Cc1ccc(-c3ccccc3)cc1)O2 | inactive
O=C1O[C@H](c2ccccc2)[C@H](c2ccccc2)N2[C@H]1[C@@H](C(=O)O)[C@]1(C(=O)Nc3ccc(C#CC4(O)CCCCCC4)cc31)[C@H]2c1ccc(OCCO)cc1 | inactive
C[C@@H]1CN([C@H](C)CO)C(=O)c2c(c3ccccc3n2C)-c2ccccc2CO[C@H]1CN(C)C(=O)c1ccc(F)cc1 | inactive
Cc1cc(C(=O)Nc2cccc3c2O[C@@H](CN(C)S(=O)(=O)c2ccc(Cl)cc2)[C@H](C)CN([C@H](C)CO)C3=O)n(C)n1 | inactive
Cc1cc(C(=O)Nc2cccc3c2O[C@H](CN(C)C(=O)Nc2ccc4c(c2)OCO4)[C@H](C)CN([C@@H](C)CO)C3=O)n(C)n1 | inactive
Cc1ccc(S[C@]2(C(=O)NCc3ccccc3)CC(=O)N(Cc3ccccc3Cl)[C@@H]2c2ccc(CO)cc2I)cc1 | inactive
C/C=C/c1ccc([C@H]2[C@@H](CO)N(S(=O)(=O)CC)C23CN(C(=O)CN(C)C)C3)cc1 | inactive
CC(C)NC(=O)N(C)C[C@@H]1Oc2ncc(-c3ccc(C(=O)N(C)C)cc3)cc2C(=O)N([C@@H](C)CO)C[C@@H]1C | inactive
C[C@H]1CN([C@@H](C)CO)C(=O)Cc2cc(NS(=O)(=O)c3ccccc3)ccc2O[C@H]1CN(C)S(=O)(=O)c1ccc(F)cc1 | inactive
COCC(=O)c1ccnn1C | inactive
Cc1ccc(S(=O)(=O)N(C)C[C@H]2OCCCC[C@@H](C)Oc3ccc(NC(=O)NC4CCCCC4)cc3C(=O)N([C@H](C)CO)C[C@@H]2C)cc1 | inactive
COc1ccc(S(=O)(=O)Nc2ccc3c(c2)CC(=O)N([C@H](C)CO)C[C@H](C)[C@H](CN(C)Cc2ccc(-c4ccccc4)cc2)O3)cc1 | inactive
COc1ccc(S(=O)(=O)N[C@@H]2CC[C@@H](CCNC(=O)CN3CCOCC3)O[C@@H]2CO)cc1 | inactive
C[C@H](CO)N1C[C@H](C)[C@H](CN(C)CC2CCCCC2)Oc2ccc(NC(=O)Cn3cnnn3)cc2C1=O | inactive
C[C@H](CO)N1C[C@H](C)[C@@H](CN(C)Cc2ccncc2)Oc2c(NS(=O)(=O)c3ccccc3)cccc2C1=O | inactive
C[C@@H]1CCCCO[C@@H](CN(C)S(=O)(=O)c2ccc(Cl)cc2)[C@@H](C)CN([C@H](C)CO)C(=O)c2cc(NC(=O)c3ccncc3)ccc2O1 | inactive
C[C@@H]1CN([C@H](C)CO)C(=O)Cc2cc(NC(=O)CCC(F)(F)F)ccc2O[C@@H]1CN(C)Cc1ccc(C(F)(F)F)cc1 | inactive
CC(C)(C)[S@@](=O)N1Cc2cc(C(=O)N3CCCCC3)nc(-c3cccc(-c4ccc(F)cc4)c3)c2[C@H]1CCO | inactive
C=CCC[C@@H](Cc1ccc(F)cc1)C(=O)OC[C@@H]1CCCN1C(=O)[C@@H](CC=C)CC(=O)N(CCO)Cc1ccccc1 | inactive
Cc1ccc(S(=O)(=O)Nc2ccc3c(c2)C(=O)N([C@H](C)CO)C[C@@H](C)[C@H](CN(C)S(=O)(=O)c2ccc(F)cc2)OCCCC[C@@H](C)O3)cc1 | inactive
C[C@@H]1CCCCO[C@H](CN(C)C(=O)c2ccccc2)[C@@H](C)CN([C@@H](C)CO)C(=O)c2cc(NC(=O)Nc3cccc4ccccc34)ccc2O1 | inactive
C[C@@H]1CCCCO[C@@H](CN(C)S(=O)(=O)c2cccs2)[C@@H](C)CN([C@H](C)CO)C(=O)c2cc(NS(=O)(=O)c3ccc(Cl)cc3)ccc2O1 | inactive
C[C@@H]1CN([C@@H](C)CO)C(=O)Cc2cc(NS(=O)(=O)c3ccccc3)ccc2O[C@@H]1CN(C)Cc1ccc(C(=O)O)cc1 | inactive
CNC(=O)c1ccc(OC(C)=O)cc1 | inactive
COCC(=O)Nc1ccc2c(c1)C(=O)N(C)C[C@@H](OC)[C@H](C)CN(Cc1ccccc1C(=O)O)[C@H](C)CO2 | inactive
C[C@@H]1CCCCO[C@@H](CN(C)CC2CCCCC2)[C@@H](C)CN([C@@H](C)CO)C(=O)c2cc(NC(=O)Nc3cccc4ccccc34)ccc2O1 | active
CC(C)[C@@H](CC[C@@H](C)[C@H]1CC[C@H]2[C@@H]3[C@H](O)C[C@H]4C[C@@H](NCCCNCCCCNCCCN)CC[C@]4(C)[C@H]3CC[C@]12C)OS(=O)(=O)O | active
COc1ccc(S(=O)(=O)N(C)C[C@H]2Oc3c(NS(C)(=O)=O)cccc3C(=O)N([C@H](C)CO)C[C@H]2C)cc1 | inactive
O=C(C[C@@H]1CC[C@H]2[C@@H](COC[C@@H](O)CN2S(=O)(=O)c2ccc(Oc3ccccc3)cc2)O1)NC1CCC1 | inactive

tested on: HepG2; test: cytotoxicity call (relative viability < 0.9); details: 10 µM

SMILES | cytotoxicity call
C[C@@H]1CN([C@H](C)CO)C(=O)Cc2cc(NC(=O)CCCCCC(=O)Nc3ccccc3N)ccc2O[C@H]1CN(C)Cc1ccc(Cl)c(Cl)c1 | inactive
CC12CC(OC1=O)C1(C)CCC3(C)C(=CCC4C5(C)CCC(O)C(C)(C)C5CCC43C)C1C2 (stereo unspecified) | inactive
CCS(=O)(=O)Nc1ccc2c(c1)C(=O)N(C)[C@H]1CC[C@H](CC(=O)NCCOC)O[C@@H]1CO2 | inactive
CCCNC(=O)N(C)C[C@H]1Oc2cc(-c3ccc(C)cc3)ccc2S(=O)(=O)N([C@@H](C)CO)C[C@H]1C | inactive
O=S(=O)(NCC[C@H]1CC[C@H](NS(=O)(=O)c2ccccc2Cl)[C@@H](CO)O1)c1ccc(Cl)cc1 | inactive
CN1CCN(C(=O)C[C@@H]2CC[C@H]3[C@@H](COC[C@H](O)CN3S(=O)(=O)c3cccc(Cl)c3)O2)CC1 | inactive
C[C@@H]1CCCCO[C@H](CN(C)C(=O)Cc2ccccc2)[C@@H](C)CN([C@H](C)CO)C(=O)c2cc(NC(=O)Nc3ccc(F)cc3)ccc2O1 | inactive
C[C@@H]1CN([C@H](C)CO)C(=O)c2cccc(NC(=O)c3ccc(-c4nccs4)cc3)c2O[C@H]1CN(C)CC1CCCCC1 | active
C[C@@H]1CN([C@@H](C)CO)C(=O)Cc2cc(NC(=O)Nc3ccc(C(F)(F)F)cc3)ccc2O[C@@H]1CN(C)Cc1ccc(C(=O)O)cc1 | inactive
CCNC(=O)C[C@H]1C=C[C@H](NC(=O)C2CC2)[C@H](CO)O1 | inactive
COc1ccc(C#Cc2ccc3c(c2)[C@H]2[C@H](CCN2C(=O)Nc2ccc(C(F)(F)F)cc2)[C@@H](CO)N3C)cc1 | inactive
Cc1noc(C)c1S(=O)(=O)Nc1ccc2c(c1)C(=O)N([C@H](C)CO)C[C@@H](C)[C@@H](CN(C)Cc1ccc(-c3ccccc3)cc1)O2 | inactive
O=C1O[C@H](c2ccccc2)[C@H](c2ccccc2)N2[C@H]1[C@@H](C(=O)O)[C@]1(C(=O)Nc3ccc(C#CC4(O)CCCCCC4)cc31)[C@H]2c1ccc(OCCO)cc1 | inactive
C[C@@H]1CN([C@H](C)CO)C(=O)c2c(c3ccccc3n2C)-c2ccccc2CO[C@H]1CN(C)C(=O)c1ccc(F)cc1 | inactive
Cc1cc(C(=O)Nc2cccc3c2O[C@@H](CN(C)S(=O)(=O)c2ccc(Cl)cc2)[C@H](C)CN([C@H](C)CO)C3=O)n(C)n1 | inactive
Cc1cc(C(=O)Nc2cccc3c2O[C@H](CN(C)C(=O)Nc2ccc4c(c2)OCO4)[C@H](C)CN([C@@H](C)CO)C3=O)n(C)n1 | inactive

SMILES | cytotoxicity call
Cc1ccc(S[C@]2(C(=O)NCc3ccccc3)CC(=O)N(Cc3ccccc3Cl)[C@@H]2c2ccc(CO)cc2I)cc1 | inactive
C/C=C/c1ccc([C@H]2[C@@H](CO)N(S(=O)(=O)CC)C23CN(C(=O)CN(C)C)C3)cc1 | inactive
CC(C)NC(=O)N(C)C[C@@H]1Oc2ncc(-c3ccc(C(=O)N(C)C)cc3)cc2C(=O)N([C@@H](C)CO)C[C@@H]1C | inactive
C[C@H]1CN([C@@H](C)CO)C(=O)Cc2cc(NS(=O)(=O)c3ccccc3)ccc2O[C@H]1CN(C)S(=O)(=O)c1ccc(F)cc1 | inactive
COCC(=O)c1ccnn1C | inactive
Cc1ccc(S(=O)(=O)N(C)C[C@H]2OCCCC[C@@H](C)Oc3ccc(NC(=O)NC4CCCCC4)cc3C(=O)N([C@H](C)CO)C[C@@H]2C)cc1 | inactive
COc1ccc(S(=O)(=O)Nc2ccc3c(c2)CC(=O)N([C@H](C)CO)C[C@H](C)[C@H](CN(C)Cc2ccc(-c4ccccc4)cc2)O3)cc1 | active
COc1ccc(S(=O)(=O)N[C@@H]2CC[C@@H](CCNC(=O)CN3CCOCC3)O[C@@H]2CO)cc1 | inactive
C[C@H](CO)N1C[C@H](C)[C@H](CN(C)CC2CCCCC2)Oc2ccc(NC(=O)Cn3cnnn3)cc2C1=O | inactive
C[C@H](CO)N1C[C@H](C)[C@@H](CN(C)Cc2ccncc2)Oc2c(NS(=O)(=O)c3ccccc3)cccc2C1=O | inactive
C[C@@H]1CCCCO[C@@H](CN(C)S(=O)(=O)c2ccc(Cl)cc2)[C@@H](C)CN([C@H](C)CO)C(=O)c2cc(NC(=O)c3ccncc3)ccc2O1 | inactive
C[C@@H]1CN([C@H](C)CO)C(=O)Cc2cc(NC(=O)CCC(F)(F)F)ccc2O[C@@H]1CN(C)Cc1ccc(C(F)(F)F)cc1 | inactive
CC(C)(C)[S@@](=O)N1Cc2cc(C(=O)N3CCCCC3)nc(-c3cccc(-c4ccc(F)cc4)c3)c2[C@H]1CCO | inactive
C=CCC[C@@H](Cc1ccc(F)cc1)C(=O)OC[C@@H]1CCCN1C(=O)[C@@H](CC=C)CC(=O)N(CCO)Cc1ccccc1 | inactive
Cc1ccc(S(=O)(=O)Nc2ccc3c(c2)C(=O)N([C@H](C)CO)C[C@@H](C)[C@H](CN(C)S(=O)(=O)c2ccc(F)cc2)OCCCC[C@@H](C)O3)cc1 | inactive
C[C@@H]1CCCCO[C@H](CN(C)C(=O)c2ccccc2)[C@@H](C)CN([C@@H](C)CO)C(=O)c2cc(NC(=O)Nc3cccc4ccccc34)ccc2O1 | inactive
